US11583596B2, “Radiolabeled Darapladib and analogs thereof and their use as imaging compounds” (INSERM (INSTITUT NATIONAL DE LA SANTÉ ET DE LA RECHERCHE …, priority 2017, dated 2023)

Key:
[1] = Whole body PET imaging / biodistribution in ApoE KO and C57Bl6 mice; format: in vivo
Procedure: Apolipoprotein E-deficient mice (ApoE (−/−) or ApoE KO) and C57Bl6 mice were purchased from Charles River Laboratories (Saint-Germain-sur-L'Arbresles). All the animals were maintained at a constant temperature (24±1° C.) and a hygrometry between 55 to 65% under a 12 hour light/dark cycle, and permitted free access to food and water. Mice were handled and cared in accordance with the Guide for the Care and Use of Laboratory Animals (national Research Council, 1996), the European Council Directive 2010/63/EU and approved by the Ethics Committee no 114 for Animal Experimentation under the reference APAFIS #6271-201605021622180v2, under the supervision of authorized investigators.
Apolipoprotein E-deficient mice (ApoE (−/−) or ApoE KO) were chosen as models for atherosclerosis studies. Mice were bred in the animal facility until the age of 18-20 months for the study. 5 ApoE KO mice were used for each radiotracer.
Darapladib and its radiolabelling precursor were synthesized by improving procedures adapted from the literature. In order to perform PET imaging, a 10 month-ApoE knockout mouse model containing atheromatous plaques was used. ^18F-Darapladib and [18F]-deoxyglucose (used as positive control for detection of metabolically active cells) were injected to both ApoE KO and control C57Bl/6 mice. Animals were imaged for one hour and then sacrificed. […]

atheroma plaques = test: Ex vivo PET imaging of dissected heart and aorta of ApoE KO and C57Bl6 mice; format: in vivo; settings: for accumulation/labelling in heart and aorta, ex vivo: 15 min PET acquisition after dissection
Procedure: At the end of the PET imaging acquisitions, the animals were sacrificed by cardiac puncture. The heart and aorta were isolated, blood-flushed and placed under the multimodal imager. A PET acquisition of 15 minutes was performed specifically on these tissues to measure the activity associated to the atherosclerosis plaques. At the end of this acquisition, all the organs were collected and placed into glass tubes for the γ-counter measurements.
In order to target blood vessels more precisely, it was sampled both the aorta and heart and performed a 15 min PET acquisition (FIGS. 4, 5, 7A and 7B).
Darapladib and its radiolabelling precursor were synthesized by improving procedures adapted from the literature. In order to perform PET imaging, a 10 month-ApoE knockout mouse model containing atheromatous plaques was used. ^18F-Darapladib and [18F]-deoxyglucose (used as positive control for detection of metabolically active cells) were injected to both ApoE KO and control C57Bl/6 mice. Animals were imaged for one hour and then sacrificed. The aorta and heart were sampled and imaged ex vivo for 15 min. Organs were also sampled to perform biodistribution studies. Imaging was also performed on human carotid endarterectomy samples ex vivo by incubation with both radiotracers separately.

Melanoma B16 tumors = test: PET imaging in tumor-induced inflammatory model (B16 tumors in C57Bl6 mice); settings: i.v. tail injection, whole body PET
[2] = ApoE KO mice (atheroma plaques)

| organ accumulation, whole body PET imaging ([1]; ApoE KO and C57Bl6 mice (no difference between strains)) | Molecule | accumulation/labelling in heart and aorta, ex vivo (atheroma plaques; [2]) | accumulation in the aorta / intravascular on whole body imaging ([1]; ApoE KO mice, imaged for one hour) | accumulation/labelling in heart and aorta, ex vivo (atheroma plaques; ApoE KO mice (atheroma plaques), listed as [18F]-Darapladib) | accumulation/labelling in heart and aorta, ex vivo (atheroma plaques; C57Bl6 (WT) control mice, listed as [18F]-Darapladib) | accumulation in the tumor (PET) (Melanoma B16 tumors; listed as 18F-Darapladib) | accumulation/labelling in heart and aorta, ex vivo (atheroma plaques; C57Bl6 (WT) control mice) | accumulation in heart and aorta, ex vivo (atheroma plaques; both ApoE KO and C57Bl6 mice, listed as 18FDG) | accumulation in the tumor (PET) (Melanoma B16 tumors; listed as 18FDG) |
| --- | --- | --- | --- | --- | --- | --- | --- | --- | --- |
| accumulation in the liver and intestine | CC(C)(C)OC(=O)Cn1c(SCc2ccc([18F])cc2)nc(=O)c2c1CCC2 [A4] | accumulation of [^18F]N1-FGU in the heart and specifically in atheromatous lesions | – | – | – | – | – | – | – |
| – | CCN(CC)CCN(Cc1ccc(-c2ccc(C(F)(F)F)cc2)cc1)C(=O)Cn1c(SCc2ccc([18F])cc2)nc(=O)c2c1CCC2 [[18F]Darapladib] | – | did not allow to see any accumulation in the aorta | Plaques and labelling along the aorta | No plaques and no labelling | did not show any detectable signal | – | – | – |
| – | Fluorodeoxyglucose [[18F]-FDG, reference compound] | Plaques but no labelling | – | – | – | – | No plaques and no labelling | no accumulation was observed for both models | accumulated markedly in the tumor |
